This note sets out measurements from a collection of fitness landscapes (doi:10.1126/science.1257360).

This is one part of the list.

To fix the notation:
B1: PhoQ; a variant is named by its letters at X, in order, P23837 (parent)
chain: MKKLLRLFFPLSLRVRFLLATAAVVLVLSLAYGMVALIGYSVSFDKTTFRLLRGESNLFYTLAKWENNKLHVELPENIDKQSPTMTLIYDENGQLLWAQRDVPWLMKMIQPDWLKSNGFHEIEADVNDTSLLLSGDHSIQQQLQEVREDDDDAEMTHSVAVNVYPATSRMPKLTIVVVDTIPVELKSSYMVWSWFIYVLSANLLLVIPLLWVAAWWSLRPIEALAKEVRELEEHNRELLNPATTRELTSLVRNLNRLLKSERERYDKYRTTLTDLTHSLKTPLXXLQXXLRSLRSEKMSVSDAEPVMLEQISRISQQIGYYLHRASMRGGTLLSRELHPVAPLLDNLTSALNKVYQRKGVNISLDISPEISFVGEQNDFVEVMGNVLDNACKYCLEFVEISARQTDEHLYIVVEDDGPGIPLSKREVIFDRGQRVDTLRPGQGVGLAVAREITEQYEGKIVAGESMLGGARMEVIFGRQHSAPKDE

This test covers variants of B1. Nature of the test: enrichment ratio after two sorts for PhoP signalling (ratio (wild type AVST 3.29)); higher = more functional. The settings on record: with PhoP (E. coli).
Turning to LQMY, the enrichment ratio is not above 0.25. The figure for QCNL is not above 0.25; for ETGS it is not above 0.25; for PHED it is not above 0.25. The figure for INYH is 1.2. The figure for WMID is not above 0.25; for GKNG it is not above 0.25; for DFHH it is not above 0.25.

On to NSAY, for which the enrichment ratio is not above 0.25. In the case of KVDR, the enrichment ratio was not above 0.25. To FVRC belongs not above 0.25; to SGGF, 1.06; to YKFE, not above 0.25. Turning to SRSP, the enrichment ratio was not above 0.25. With TAKP, the enrichment ratio is not above 0.25.

On to ETYM, for which the enrichment ratio was not above 0.25.

On to LILT, for which the enrichment ratio is not above 0.25. The figure for EVFK is not above 0.25; for IVYA it is not above 0.25. The figure for APYG is not above 0.25; for SRIL it is 4.63; for EQTC it is not above 0.25. The figure for NEWI is not above 0.25; for AQKT it is not above 0.25. Take DPGG: the enrichment ratio was not above 0.25. To ILFE belongs not above 0.25; to EVTH, not above 0.25. The figure for YLRS is not above 0.25; for FNPE it is not above 0.25. With TAHC, the enrichment ratio was determined as 5.41. The figure for TPND is not above 0.25; for DDHK it is not above 0.25; for RKFQ it is not above 0.25. The figure for NMRI is not above 0.25; for LQGE it is not above 0.25; for MMLG it is not above 0.25.

With KNKF, the enrichment ratio is not above 0.25. The figure for IQGW is not above 0.25; for EIFL it is 0.954. The figure for DSYV is not above 0.25. The figure for FPFC is not above 0.25; for TVML it is 1.47. Consider PNGF, for which the enrichment ratio is not above 0.25. Consider PVCI, for which the enrichment ratio was not above 0.25. For ALWI, the enrichment ratio is not above 0.25. To WSFI belongs not above 0.25; to SIFE, not above 0.25. For the variant SDSN, the enrichment ratio was not above 0.25. To DCCS belongs not above 0.25; to GNDF, not above 0.25; to KLAA, not above 0.25.

For the variant DYDT, the enrichment ratio is not above 0.25.

As to NHLF, the enrichment ratio was not above 0.25.

Regarding SACP, the enrichment ratio was not above 0.25. The figure for EYVY is not above 0.25; for SDNA it is not above 0.25; for NYCN it is not above 0.25. On to HCMK, for which the enrichment ratio is not above 0.25. The figure for TRGA is not above 0.25. To DVDP belongs not above 0.25; to VKEW, not above 0.25; to EMPW, not above 0.25. Turning to AHEF, the enrichment ratio was not above 0.25. Consider SRGF, for which the enrichment ratio turned out to be 0.392.

In the case of YWFD, the enrichment ratio is not above 0.25. The figure for YSYD is not above 0.25; for VTQP it is 0.521. To RRPW belongs not above 0.25; to RVQV, not above 0.25. For the variant VELP, the enrichment ratio was not above 0.25. To SRSF belongs not above 0.25. To IRVI belongs not above 0.25; to CMCV, not above 0.25; to FSIA, not above 0.25.

As for AWHE, the enrichment ratio is not above 0.25. For the variant YEDF, the enrichment ratio is not above 0.25. The figure for FIVY is not above 0.25; for TYLN it is not above 0.25.

With YWEC, the enrichment ratio is not above 0.25. The figure for IMWH is not above 0.25; for QYKS it is not above 0.25; for VQNG it is not above 0.25. The figure for YHNY is not above 0.25. In the case of PGSS, the enrichment ratio was determined as 0.567. To LLRS belongs not above 0.25. To HMKS belongs not above 0.25; to TQDR, not above 0.25; to TKIG, 1.16. In the case of HHQC, the enrichment ratio is not above 0.25. Take WECC: the enrichment ratio was not above 0.25. Turning to NYAE, the enrichment ratio was not above 0.25. With SDRM, the enrichment ratio is not above 0.25. To FFWY belongs not above 0.25; to PFVS, not above 0.25. With NARD, the enrichment ratio is not above 0.25.

For ESGM, the enrichment ratio is not above 0.25. Turning to VFWW, the enrichment ratio is not above 0.25. Consider RSTM, for which the enrichment ratio was not above 0.25.

On to WEWN, for which the enrichment ratio was not above 0.25.

Consider FSLT, for which the enrichment ratio turned out to be 7.83. On to EFTT, for which the enrichment ratio was not above 0.25. The figure for EVKC is not above 0.25; for HCRK it is not above 0.25; for RECP it is not above 0.25.

Consider DDYT, for which the enrichment ratio was not above 0.25. To FFHQ belongs not above 0.25; to TTLI, 12.4; to WMML, not above 0.25.

In the case of QKKI, the enrichment ratio was not above 0.25. In the case of LVDK, the enrichment ratio was not above 0.25. To YIME belongs not above 0.25; to NPNH, not above 0.25. To TSCF belongs 9.88. For TYYE, the enrichment ratio was not above 0.25. The figure for HCFN is not above 0.25; for NRYM it is not above 0.25. To RMIE belongs not above 0.25; to AYHN, not above 0.25. The figure for QTDW is not above 0.25; for KVMC it is not above 0.25; for FMHI it is not above 0.25.

GYGT: the enrichment ratio is not above 0.25.

On to NQLT, for which the enrichment ratio was not above 0.25. The figure for AMRW is not above 0.25; for ETNM it is not above 0.25. For AGCP, the enrichment ratio was not above 0.25. On to ADGT, for which the enrichment ratio is not above 0.25. To YTTE belongs not above 0.25; to SNAI, 22; to AHLL, 9.28.

Regarding EMRS, the enrichment ratio is not above 0.25. The figure for MCHR is not above 0.25; for NEPH it is not above 0.25.

Regarding HACM, the enrichment ratio is not above 0.25. In the case of ISVL, the enrichment ratio stood at 0.465. On to DEQW, for which the enrichment ratio was not above 0.25. To NATG belongs not above 0.25; to NGSF, not above 0.25; to IRRP, not above 0.25. To CSEP belongs not above 0.25; to PQYY, not above 0.25. To NPFK belongs not above 0.25. As for ERLW, the enrichment ratio was not above 0.25. The figure for PCLN is not above 0.25; for FEHT it is not above 0.25; for VYCW it is not above 0.25. The figure for FSLF is 4.86; for FQPG it is not above 0.25; for LWGN it is not above 0.25. To STKG belongs not above 0.25. For the variant MTKV, the enrichment ratio is not above 0.25. To YKKQ belongs not above 0.25; to NQVA, not above 0.25.
